Among all 310,000 compounds or so, about 2,200 (0.71%) showed an effect of 50% or more. The effect is printed as a negative number. Some of the results follow.
Target: human ether-à-go-go-related gene (hERG) potassium channel (human, UniProt Q12809)
Experiment: primary screen, population patch clamp on CHO cells stably expressing hERG

Sequence of human ether-à-go-go-related gene (hERG) potassium channel (Q12809 whole entry, looked up): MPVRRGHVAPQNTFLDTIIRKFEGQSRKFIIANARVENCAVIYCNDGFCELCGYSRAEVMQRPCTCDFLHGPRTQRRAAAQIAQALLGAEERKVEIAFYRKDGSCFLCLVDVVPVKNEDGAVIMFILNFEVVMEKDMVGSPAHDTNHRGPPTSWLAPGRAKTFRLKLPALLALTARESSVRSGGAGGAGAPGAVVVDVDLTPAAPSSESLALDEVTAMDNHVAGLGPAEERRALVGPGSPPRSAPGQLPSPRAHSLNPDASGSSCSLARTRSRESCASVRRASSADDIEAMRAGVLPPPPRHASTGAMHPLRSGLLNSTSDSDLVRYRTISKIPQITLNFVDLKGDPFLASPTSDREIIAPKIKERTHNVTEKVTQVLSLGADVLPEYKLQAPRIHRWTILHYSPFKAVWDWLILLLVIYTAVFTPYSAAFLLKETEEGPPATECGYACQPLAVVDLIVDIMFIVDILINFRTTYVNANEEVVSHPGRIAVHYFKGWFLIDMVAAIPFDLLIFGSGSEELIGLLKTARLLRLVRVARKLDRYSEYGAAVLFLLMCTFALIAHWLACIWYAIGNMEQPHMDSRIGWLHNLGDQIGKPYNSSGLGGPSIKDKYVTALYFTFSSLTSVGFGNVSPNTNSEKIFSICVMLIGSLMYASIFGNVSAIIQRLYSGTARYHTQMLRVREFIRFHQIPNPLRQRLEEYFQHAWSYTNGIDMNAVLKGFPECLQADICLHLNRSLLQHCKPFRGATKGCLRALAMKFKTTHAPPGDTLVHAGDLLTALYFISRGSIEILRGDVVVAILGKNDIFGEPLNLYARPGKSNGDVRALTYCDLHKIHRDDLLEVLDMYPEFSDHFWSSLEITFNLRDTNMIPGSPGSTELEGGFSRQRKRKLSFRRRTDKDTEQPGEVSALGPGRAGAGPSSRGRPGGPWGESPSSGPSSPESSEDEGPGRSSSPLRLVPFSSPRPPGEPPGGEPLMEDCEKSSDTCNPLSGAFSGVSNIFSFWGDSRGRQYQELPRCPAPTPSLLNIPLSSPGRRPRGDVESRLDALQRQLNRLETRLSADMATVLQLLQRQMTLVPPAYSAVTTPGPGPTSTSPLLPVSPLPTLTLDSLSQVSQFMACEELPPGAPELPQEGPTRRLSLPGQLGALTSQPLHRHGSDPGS

Row | Compound | hERG current change (%, negative = inhibition) at 1uM
1 | Cc1cc(C(=O)NC2CCCc3c2cnn3-c2ccccc2F)nc(C)n1 (stereo not shown) | 24.3%
2 | Cc1ccc(Oc2nc3c(C)cccn3c(=O)c2/C=C(\C#N)C(N)=O)cc1 | 9.93%
3 | Cc1ccc(C(=O)Nc2c(C)n(C)n(-c3ccccc3)c2=O)cc1S(=O)(=O)N1CCOCC1 | 3.25%
4 | COC(=O)C1=C(c2cccc(C#N)c2)C[C@@H]2CC[C@H]1N2C(=O)NCCO | 18.4%
5 | CCCC(=O)Nc1ccc(Cl)c(NC(=S)NC(=O)c2cc3ccccc3o2)c1 | 5.56%
6 | O=C(CCN=C1NS(=O)(=O)c2ccccc21)N1CCc2ccccc2C1 | 12.4%
7 | CCOc1ccc(NS(=O)(=O)c2ccc(C(=O)NNC(=O)c3ccccc3O)cc2)cc1 | 8.39%
8 | CCCn1nc(NC(=O)COC)c2cc3cc(C)ccc3nc21 | 13.4%
9 | O/N=C(/CN(O)/C=C1/C=CC=N1)c1cccs1 | 7.13%
10 | CCc1cc2c(SCC(=O)NC3CCS(=O)(=O)C3)ncnc2s1 (stereo not shown) | 5.8%
11 | COc1ccc(NC(=O)CN2CCN(c3ccccc3Cl)CC2)cc1 | 1.08%
12 | Br.COc1ccc(C(=O)CN2CC(C)SC2=Nc2ccc(Cl)cc2)cc1 (stereo not shown) | 11.8%
13 | O=C(NC(=S)Nc1ccccc1Cl)c1csnn1 | 14%
14 | CCOC(=O)c1cccc(OC(=O)CCNC(=O)c2ccc(Cl)cc2)c1 | -0.409%
15 | CC1CC2(C)Oc3ccccc3CC2C(C)C1CNCCCN(C)C (stereo not shown) | 6.25%
16 | CCN1CCN(S(=O)(=O)c2cc3c(cc2Cl)NC(=O)CO3)CC1 | 11%
17 | NC(=O)C1CCN(C(=O)Cn2cccc2C(=O)c2ccccc2)CC1 | 10.1%
18 | CC(C)Cn1c(N)c(C(=O)COC(=O)c2cc(-c3ccco3)nc3ccccc23)c(=O)n(C)c1=O | 16.2%
19 | Cc1ccc(OCC(=O)NCc2ccccn2)cc1 | 6.06%
20 | Cc1cc(=O)n2[nH]c(-c3ccc(Cl)cc3)cc2n1 | 14.4%
21 | O=C(CCCN1C(=O)/C(=C/c2cccs2)SC1=S)NNC(=O)c1ccc(F)cc1 | 6.5%
22 | Cc1cccc(NC(=O)CN2CCN(C(=O)C3CCCO3)CC2)c1C (stereo not shown) | 5.32%
23 | Cc1cccc(NC(=O)CSc2nnc(C)c(C)n2)c1 | 17.1%
24 | COc1ccc(O)c(-c2cc(-c3ccccc3Cl)[nH]n2)c1 | 13%
25 | Cl.O=c1c(-c2ccccc2)c(O)nc(SCCN2CCOCC2)n1-c1ccccc1 | 22.1%
